Where a chain is given by its changes, count along the chain named. The list shows a part of the results.

Sequences and labels used below:
B1: UGCGAGG (DNA:RNA)
RNA: GGGAGACCGGAAUUCAGAUUGUCCUGCGAGGUUAAAUCCCGUCGUAGCCACCA
DNA 1: CAATCTGAATTCCGGTCTCCC
DNA 2: TGGTGGCTACGACGGGATT
B2: UCCAGUU (DNA:RNA)
RNA: B1 RNA with G26C, G28A, A29G, G30U, G31U
DNA 1: CAATCTGAATTCCGGTCTCCC
DNA 2: TGGTGGCTACGACGGGATT
B3: CGGGUAC (DNA:RNA)
RNA: B1 RNA with U25C, C27G, A29U, G30A, G31C
DNA 1: CAATCTGAATTCCGGTCTCCC
DNA 2: TGGTGGCTACGACGGGATT
B4: GGGGGGU (DNA:RNA)
RNA: B1 RNA with U25G, C27G, A29G, G31U
DNA 1: CAATCTGAATTCCGGTCTCCC
DNA 2: TGGTGGCTACGACGGGATT
B5: GGAUUAA (DNA:RNA)
RNA: B1 RNA with U25G, C27A, G28U, A29U, G30A, G31A
DNA 1: CAATCTGAATTCCGGTCTCCC
DNA 2: TGGTGGCTACGACGGGATT
B6: GGGCCAC (DNA:RNA)
RNA: B1 RNA with U25G, C27G, G28C, A29C, G30A, G31C
DNA 1: CAATCTGAATTCCGGTCTCCC
DNA 2: TGGTGGCTACGACGGGATT
B7: UAGAGAU (DNA:RNA)
RNA: B1 RNA with G26A, C27G, G28A, A29G, G30A, G31U
DNA 1: CAATCTGAATTCCGGTCTCCC
DNA 2: TGGTGGCTACGACGGGATT
B8: UGGGUUG (DNA:RNA)
RNA: B1 RNA with C27G, A29U, G30U
DNA 1: CAATCTGAATTCCGGTCTCCC
DNA 2: TGGTGGCTACGACGGGATT
B9: UCAGUUA (DNA:RNA)
RNA: B1 RNA with G26C, C27A, A29U, G30U, G31A
DNA 1: CAATCTGAATTCCGGTCTCCC
DNA 2: TGGTGGCTACGACGGGATT
B10: CUCAUUC (DNA:RNA)
RNA: B1 RNA with U25C, G26U, G28A, A29U, G30U, G31C
DNA 1: CAATCTGAATTCCGGTCTCCC
DNA 2: TGGTGGCTACGACGGGATT
B11: UUGUAAA (DNA:RNA)
RNA: B1 RNA with G26U, C27G, G28U, G30A, G31A
DNA 1: CAATCTGAATTCCGGTCTCCC
DNA 2: TGGTGGCTACGACGGGATT
B12: GCGAACA (DNA:RNA)
RNA: B1 RNA with U25G, G26C, C27G, G28A, G30C, G31A
DNA 1: CAATCTGAATTCCGGTCTCCC
DNA 2: TGGTGGCTACGACGGGATT
B13: CAGCGCU (DNA:RNA)
RNA: GGGAGACCGGAAUUCAGAUUGUCCCAGCGCUUUAAAUCCCGUCGUAGCCACCA
DNA 1: CAATCTGAATTCCGGTCTCCC
DNA 2: TGGTGGCTACGACGGGATT
B14: GGAGAAG (DNA:RNA)
RNA: B1 RNA with U25G, C27A, G30A
DNA 1: CAATCTGAATTCCGGTCTCCC
DNA 2: TGGTGGCTACGACGGGATT
B15: CUGGUCC (DNA:RNA)
RNA: B13 RNA with A26U, C28G, G29U, U31C
DNA 1: CAATCTGAATTCCGGTCTCCC
DNA 2: TGGTGGCTACGACGGGATT
B16: CUGCUAC (DNA:RNA)
RNA: B13 RNA with A26U, G29U, C30A, U31C
DNA 1: CAATCTGAATTCCGGTCTCCC
DNA 2: TGGTGGCTACGACGGGATT
B17: CGCUCAA (DNA:RNA)
RNA: B1 RNA with U25C, G28U, A29C, G30A, G31A
DNA 1: CAATCTGAATTCCGGTCTCCC
DNA 2: TGGTGGCTACGACGGGATT
B18: GAACGAG (DNA:RNA)
RNA: B13 RNA with C25G, G27A, C30A, U31G
DNA 1: CAATCTGAATTCCGGTCTCCC
DNA 2: TGGTGGCTACGACGGGATT
B19: CGGAGGC (DNA:RNA)
RNA: B13 RNA with A26G, C28A, C30G, U31C
DNA 1: CAATCTGAATTCCGGTCTCCC
DNA 2: TGGTGGCTACGACGGGATT
B20: UGGCGGU (DNA:RNA)
RNA: B13 RNA with C25U, A26G, C30G
DNA 1: CAATCTGAATTCCGGTCTCCC
DNA 2: TGGTGGCTACGACGGGATT

The target of the experiment is T1, RBFOX1 RRM RbFoxmut (Fox-RRM*) (Homo sapiens, UniProt Q9NWB1 109-208, R118D;E147R;N151S;E152T).
T1 sequence: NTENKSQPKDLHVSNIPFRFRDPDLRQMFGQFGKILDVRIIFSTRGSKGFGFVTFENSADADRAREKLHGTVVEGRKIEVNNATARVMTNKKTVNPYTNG
The experiment is described as follows: EMSA; HiTS-Eq, 1 nM pool, 10 min; buffer printed only for the single-RNA assays: 10 mM Tris pH 7.5, 150 mM NaCl, 3.4 mM EDTA, 0.001% NP-40, 30 C. The settings on record: tags: His6 N-terminal (pET28a); label: 5' 32P. In short, it runs like this:
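Purified wild-type or mutant RbFox RRM at increasing concentrations was equilibrated with 1 nM of 5′-radiolabelled RNA carrying 7 randomized nucleotides for 10 min in 50 µL. Unbound RNA was separated by 8% native PAGE and sequenced. Relative association constants came from read-count changes of each RNA species compared with the control reaction, normalised to the cognate motif.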
For the molecule B1, the binding signal was 0.098 KA relative to UGCAUGU.
On to B2, for which the binding signal was 0.0717 KA relative to UGCAUGU.
The same measure for B3: 0.094 KA relative to UGCAUGU; for B4: 0.0952 KA relative to UGCAUGU; for B5: 0.0905 KA relative to UGCAUGU.
Regarding B6, the binding signal is 0.0781 KA relative to UGCAUGU.
The same measure for B7: 0.0788 KA relative to UGCAUGU.
The same measure for B8: 0.947 KA relative to UGCAUGU.
Turning to B9, the binding signal was 0.107 KA relative to UGCAUGU.
Regarding B10, the binding signal was 0.0585 KA relative to UGCAUGU.
B11: the binding signal was 0.112 KA relative to UGCAUGU.
Regarding B12, the binding signal was 0.0715 KA relative to UGCAUGU.
The same measure for B13: 0.104 KA relative to UGCAUGU.
The same measure for B14: 0.0762 KA relative to UGCAUGU.
As for B15, the binding signal was 0.107 KA relative to UGCAUGU.
As to B16, the binding signal is 0.0793 KA relative to UGCAUGU.
As to B17, the binding signal is 0.0905 KA relative to UGCAUGU.
The same measure for B18: 0.257 KA relative to UGCAUGU; for B19: 0.093 KA relative to UGCAUGU; for B20: 0.109 KA relative to UGCAUGU.

The values are drawn from paper PMC9911399, “Two distinct binding modes provide the RNA-binding protein RbFox with extraordinary sequence specificity”.
